Measured values published in ChEMBL document CHEMBL4888484, “Replenishing the malaria drug discovery pipeline: Screening and hit evaluation of the MMV Hit Generation Library 1 (HGL1) against asexual blood stage Plasmodium falciparum ,using a nano luciferase reporter read-out” (2022).
About 540 (0.36%) of roughly 150,000 compounds showed an effect of 50% or more. The list shows a part of the results.

Each molecule was assayed on Plasmodium falciparum (assay: Primary screen in NF54 nanoGlo assay, in single point, at 2uM, 72h; a lower Z score goes with more inhibition). Conditions: timepoint 72 hour.
Assay type: functional, Erythrocyte
`O=C(Nc1nncs1)c1ccc2c(c1)CCCC2` was tested, and the “% Inhibition” value was -4% and the Z score was 0.56.
`CC(C)CC1(C(=O)N[C@H]2CCN(c3cc(=O)n(C)c(=O)[nH]3)C2)CCC1` was tested, and the “% Inhibition” value was -14% and the Z score was 2.42.
With `O=C(c1cscn1)N1CCC[C@H](c2nccn2Cc2cccnc2)C1` the “% Inhibition” value was -10% and the Z score was 1.45.
For `CC12CCC(C(=O)N3CCN(Cc4ccc5c(c4)OCO5)CC3)(CC1=O)C2(C)C` (centres undefined), the “% Inhibition” value was 0% and the Z score was 0.04.
With `Cc1ccc(-c2nn(Cn3cc(Cl)cn3)c(-c3ccc(C)c(C)c3)c2Br)cc1C` the “% Inhibition” value was -13% and the Z score was 1.49.
`CCC(=O)N1CC[C@H](NC(=O)Nc2cc(C)cc(N3CCN(C)CC3)c2)C1` was tested, and the “% Inhibition” value was 16% and the Z score was -2.07.
In the case of `CC(=O)N1CCC(C(=O)OCc2ccc(-c3c[nH]cn3)cc2)CC1`, the “% Inhibition” value is reported as 11% and the Z score is reported as -2.08.
`Cc1cc([C@H](C)NCCCNS(C)(=O)=O)cc(C)c1F` was tested, and the “% Inhibition” value was -3% and the Z score was 0.3.
`CC(C)(C)n1ncnc1CNC(=O)NCc1ccc(C2CC2)cc1` was tested, and the “% Inhibition” value was -4% and the Z score was 0.69.
With `CC(C)C(NS(=O)(=O)c1ccccc1F)C(=O)NCC1COc2ccccc2O1` (centres undefined) the “% Inhibition” value was 3% and the Z score was -0.34.
For `CCCC1CCCCC1NC(=O)COC` (centres undefined), the “% Inhibition” value was -1% and the Z score was 0.1.
In the case of `Cn1c(=O)c2[nH]c(N3CCN(C(=O)c4ccccc4F)CC3)nc2n(C)c1=O`, the “% Inhibition” value is reported as -6% and the Z score is reported as 1.16.
For `Cc1cnc(-c2ccncc2)n1CC1CN(C(=O)c2ccnn2C)C1`, the “% Inhibition” value was 2% and the Z score was -0.2.
In the case of `Cc1ccc(-n2nc(C(=O)NCc3ccncc3)c(=O)n(Cc3ccccc3)c2=O)cc1`, the “% Inhibition” value is reported as -7% and the Z score is reported as 0.83.
In the case of `Cc1cc2nc(C)c(=O)n(Cc3ccc(C(=O)NCCN4CCCC[C@@H]4C)cc3)c2cc1C`, the “% Inhibition” value is reported as 45% and the Z score is reported as -2.1.
For `CC(C)CN1CC[C@H](N2CCN(c3cccc(C(F)(F)F)c3)CC2)[C@H](CCC(=O)O)C1`, the “% Inhibition” value was 9% and the Z score was -1.26.
With `CC(=O)N1CCN(C(=O)[C@H](O)c2ccccc2)CCC12CCOCC2` the “% Inhibition” value was 0% and the Z score was -0.04.
For `O=C(NCCc1nc2cccnc2n1-c1ccccc1)NC1CCCC1`, the “% Inhibition” value was -25% and the Z score was 2.2.
With `CC(C)c1ncc(C(=O)N2CCN(c3ccc(F)c(Cl)c3)CC2)cn1` the “% Inhibition” value was -2% and the Z score was 0.22.
For `Cc1cccc(C(=O)NC(=O)Nc2nc(-c3ccccc3)cc(C(F)(F)F)n2)c1`, the “% Inhibition” value was -12% and the Z score was 1.65.
In the case of `C[C@@H](CC1CCOCC1)Nc1ccc(CC#N)cc1`, the “% Inhibition” value is reported as -8% and the Z score is reported as 0.92.
`Cc1nnc([C@H]2CN(C(=O)c3cnn(C)c3)CC23CCN(Cc2ccccc2)CC3)o1` was tested, and the “% Inhibition” value was -10% and the Z score was 1.46.
For `CCCN(CC)C[C@@H](C)NC(=O)c1cc(N2CC(C)OC(C)C2)ccn1` (some centres undefined), the “% Inhibition” value was -2% and the Z score was 0.24.
With `Cc1nc(CN2CCCN(c3cc(C(F)F)ncn3)CC2)oc1C` the “% Inhibition” value was -1% and the Z score was 0.11.
In the case of `COc1ccc(N2CCN(C(=O)[C@H]3CCCN(c4nnc(N5CCCC5=O)s4)C3)CC2)cc1`, the “% Inhibition” value is reported as -2% and the Z score is reported as 0.32.
In the case of `Cc1nc(C(=O)N(C)Cc2ccc3c(c2)OCO3)c(C)s1`, the “% Inhibition” value is reported as -17% and the Z score is reported as 1.43.
With `CCC(=O)NCC1=CCN(CC(=O)N2CCCCCC2)CC1` the “% Inhibition” value was -8% and the Z score was 1.59.
`Cc1ccc(-c2oc(NC(=O)c3ccccc3Br)c(C#N)c2-c2ccc(C)cc2)cc1` was tested, and the “% Inhibition” value was 10% and the Z score was -1.12.
For `CCc1ccccc1S(=O)(=O)N1CCC(Oc2nc(C(C)C)nc3c2CCOCC3)CC1`, the “% Inhibition” value was -5% and the Z score was 0.85.
With `Cc1cc(OCc2cncc(F)c2)nn1C` the “% Inhibition” value was -14% and the Z score was 1.67.
With `COc1ccc(CC(=O)NC[C@H]2CCC3(CCOCC3)CO2)c(C)c1` the “% Inhibition” value was -13% and the Z score was 1.69.
For `O=C(c1cccnn1)N1CC(Oc2ccccc2Cl)C1`, the “% Inhibition” value was -16% and the Z score was 3.12.
For `Cc1nc(N2CCOCC2)sc1Cc1ccccc1F`, the “% Inhibition” value was -4% and the Z score was 0.84.
`COc1ccc(C(=O)N2CCN(c3cnccn3)CC2)cc1S(=O)(=O)N1CCCCCC1` was tested, and the “% Inhibition” value was -5% and the Z score was 0.8.
For `COCCn1c(C(c2ccccc2)c2ccccc2)nc2ccccc21`, the “% Inhibition” value was 12% and the Z score was -1.28.
`COCc1nc(C(=O)Nc2nc3ccccc3n2C2CCCC2)cs1` was tested, and the “% Inhibition” value was 33% and the Z score was -3.72.
For `O=C(c1ccc(F)cc1)N1CCN(S(=O)(=O)c2cccnc2)CC1`, the “% Inhibition” value was -4% and the Z score was 0.49.
For `CCn1cc(CNC(=O)c2cc(COc3ccc4ncccc4c3)on2)cn1`, the “% Inhibition” value was -4% and the Z score was 0.5.
In the case of `CC(C)[C@]1(C)CC(=O)N(Cc2nccn2Cc2ccccc2)C1=O`, the “% Inhibition” value is reported as -10% and the Z score is reported as 0.93.
`CN1CCN(C[C@@H]2CN(C(=O)c3cc(-c4ccccc4)n[nH]3)C[C@@H]2CO)CC1` was tested, and the “% Inhibition” value was 4% and the Z score was -0.77.
With `CO[C@@H](C(=O)NCc1ccon1)c1ccccc1C(F)(F)F` the “% Inhibition” value was -5% and the Z score was 0.61.
In the case of `O=C(NCCc1ccc2c(c1)OCCO2)c1ccc(Cl)s1`, the “% Inhibition” value is reported as -7% and the Z score is reported as 1.09.
`C[C@H](NC(=O)Cn1c(-c2cccs2)cc2cc(Cl)ccc21)C(=O)N1CCCCC1` was tested, and the “% Inhibition” value was -15% and the Z score was 1.88.
In the case of `C[C@H](NCc1cnn(C)n1)c1cccc(-n2cccn2)c1`, the “% Inhibition” value is reported as 2% and the Z score is reported as -0.34.
In the case of `COC(=O)C1(NC(=O)CCOc2ccc(C)c(C)c2)CC(CO)C1` (centres undefined), the “% Inhibition” value is reported as 6% and the Z score is reported as -0.87.
For `N#CC1(c2nc(-c3cccc(OCc4cccnc4)c3)no2)CCC1`, the “% Inhibition” value was -9% and the Z score was 1.26.
In the case of `COc1cc(-c2cc(C(=O)N[C@H]3CC(=O)N(C)C3)[nH]n2)cc(OC)c1OC`, the “% Inhibition” value is reported as 6% and the Z score is reported as -1.2.
With `CC(C)(C(=O)O)C(=O)N1CCC[C@H](CNC(=O)Nc2cccc(F)c2)C1` the “% Inhibition” value was -12% and the Z score was 1.93.
`CC[C@H](NC(=O)Nc1cccc(NC(=O)C(C)C)c1)c1nnc2n1CCCCC2` was tested, and the “% Inhibition” value was -1% and the Z score was 0.07.
In the case of `Cc1c(NC(=O)c2cscn2)c(=O)n(-c2ccccc2)n1C`, the “% Inhibition” value is reported as -9% and the Z score is reported as 1.18.
`COC(=O)[C@@H]1C[C@H](NS(=O)(=O)c2ccc3c(c2)NC(=O)CO3)CN1C` was tested, and the “% Inhibition” value was -8% and the Z score was 1.01.
With `COc1cccc(CN2CCC[C@@]3(CCN(C(=O)c4cc5ccccc5o4)C3)C2)c1` the “% Inhibition” value was 2% and the Z score was -0.24.
`Cn1c(CCNC(=O)c2ccc(-c3ccc4c(c3)CCO4)cc2)n[nH]c1=O` was tested, and the “% Inhibition” value was -3% and the Z score was 0.58.
`CCN(C[C@H](C)C#N)C(=O)COC(=O)c1cccc(CC#N)c1` was tested, and the “% Inhibition” value was -9% and the Z score was 1.19.
In the case of `Cc1cc(CN2C[C@H](c3ccccc3)C3(CCC3)C2)oc1C(=O)O`, the “% Inhibition” value is reported as 2% and the Z score is reported as -0.29.
In the case of `COCCN(CC=C(C)C)CC1CCN(Cc2ccccc2OC)CC1`, the “% Inhibition” value is reported as -15% and the Z score is reported as 2.03.
In the case of `O=C([C@H]1CCCN(c2nc3ncccc3n3cccc23)C1)N1CCN(c2cccc(Cl)c2)CC1`, the “% Inhibition” value is reported as -4% and the Z score is reported as 0.71.
In the case of `COc1ccc(OC)c(CCNC(=O)Cn2ccc3cc(S(=O)(=O)N4CCCC4)ccc32)c1`, the “% Inhibition” value is reported as 35% and the Z score is reported as -1.03.
`CCOCCOc1cnn(-c2ccccc2)c(=O)c1Nc1cccc(C(=O)NCc2ccc(F)cc2)c1` was tested, and the “% Inhibition” value was -16% and the Z score was 1.73.
In the case of `O=S(=O)(c1cccnc1)N1CCC[C@@]2(C1)Nc1cccnc1N=C2NCc1ccccc1`, the “% Inhibition” value is reported as 29% and the Z score is reported as -3.28.
For `COc1cccc(Cn2c(-c3sccc3C)n[nH]c2=O)c1`, the “% Inhibition” value was -9% and the Z score was 1.66.
In the case of `CC(C)(C)S(=O)(=O)Cc1ccc(N)cc1`, the “% Inhibition” value is reported as -14% and the Z score is reported as 2.81.
In the case of `CCOC(=O)CN(C(=O)c1cc(C)n(C)n1)C1CCCCC1`, the “% Inhibition” value is reported as 6% and the Z score is reported as -0.61.
With `CCOc1ccccc1OCC(=O)Nc1ccccc1Oc1ccccc1Cl` the “% Inhibition” value was 11% and the Z score was -1.42.
For `O=C(O)CN(Cc1ncc(C2CC2)o1)c1ccccc1`, the “% Inhibition” value was 7% and the Z score was -0.77.
In the case of `CCN1CCCC[C@@H]1CNC(=O)NCc1noc(-c2cccc(Br)c2)n1`, the “% Inhibition” value is reported as -5% and the Z score is reported as 0.63.
`c1ccc2c(c1)CCN2Cc1csc(-c2ccoc2)n1` was tested, and the “% Inhibition” value was -2% and the Z score was 0.21.
With `COc1ccc(-c2nccnc2OC)c(-n2cccn2)c1` the “% Inhibition” value was 3% and the Z score was -0.43.
`C[C@@H](c1nc2ccccc2n1C(F)F)N1CCN(S(=O)(=O)c2cccnc2)CC1` was tested, and the “% Inhibition” value was -9% and the Z score was 0.96.
With `CCCOC(=O)N1CCC(c2nnc(CN3CCOCC3)n2C)CC1` the “% Inhibition” value was -17% and the Z score was 3.27.
`C=CCC[C@@H](CN1CCCC1)Oc1ccc(-n2ccnc2C)nn1` was tested, and the “% Inhibition” value was -3% and the Z score was 0.57.
With `Cc1nc(C)c(S(=O)(=O)N2CC[C@H](c3cnccn3)C2)s1` the “% Inhibition” value was -2% and the Z score was 0.36.
For `CCOC1CC(NC(=O)C(C)n2cncn2)C12CCCCC2` (centres undefined), the “% Inhibition” value was -8% and the Z score was 0.85.
In the case of `CC(C)c1nccc(N2CCCC3C(NC(=O)C4CCCC4)C(C)(C)C32)n1` (centres undefined), the “% Inhibition” value is reported as 15% and the Z score is reported as -1.91.
In the case of `Cc1ccc(CS(=O)(=O)Nc2ccc3nnc(C4CCC4)n3c2)cc1F`, the “% Inhibition” value is reported as -8% and the Z score is reported as 1.26.
With `N#Cc1cccc(CN2CCCN(c3ccc(NC(=O)c4ccco4)cc3)C2=O)c1` the “% Inhibition” value was -11% and the Z score was 2.2.
With `CC(C)Cn1ccc2c(C(=O)N3CC[C@@](O)(CN(C)C)C3)cccc21` the “% Inhibition” value was 7% and the Z score was -0.73.
With `Cc1nccn1CCN(C)Cc1c(C(=O)N2C[C@@H](C)O[C@@H](C)C2)nc2sccn12` the “% Inhibition” value was -7% and the Z score was 0.86.
In the case of `Cn1ncc(NC(=O)N[C@H]2CCCC23CCCCC3)c1C(F)(F)F`, the “% Inhibition” value is reported as -2% and the Z score is reported as 0.21.
For `CNC(=O)c1nnsc1NC(=O)N1CCN(c2ccc(OC)cc2)CC1`, the “% Inhibition” value was 5% and the Z score was -0.78.
With `C=CCNC1CS(=O)(=O)CC1S(=O)(=O)c1ccc(CC)cc1` (centres undefined) the “% Inhibition” value was -9% and the Z score was 0.8.
In the case of `CCOc1ccc(OC(C)(C)C(=O)Nc2cccc(S(=O)(=O)NC3CC3)c2)cc1`, the “% Inhibition” value is reported as -5% and the Z score is reported as 0.39.
